Test results as given in PubChem BioAssay AID938 (National Center for Advancing Translational Sciences (NCATS), 2007).
The whole screen tested about 73,000 compounds, of which about 1,800 (2.5%) were called active. The shares of active, inactive and inconclusive entries below differ from those in the screen. Calls come from the whole dose curve; as a rule, active = well fitted activation curve with a large enough effect; inconclusive = small, poorly fitted or top-dose-only effect; inactive = no such curve, though single readings can be large or run the other way. No potency is given beside an inconclusive call; the fits are too rough.

Assay: qHTS Assay for Agonists of the Thyroid Stimulating Hormone Receptor: Activators of Intracellular cAMP Concentrations in Parental HEK 293; note: nearly all actives have a fitted effect of over 55% in size; for activation: % of control where 0% means no effect
Conditions: parental HEK293 CNG cAMP sensor, membrane potential fluorescence; activation: at 57.1 µM (top of the series) unless noted
Summary of the method: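 Parental HEK 293 cells stably expressing a cAMP-gated CNG channel were loaded with membrane potential dye containing 100 uM RO 20-1724 for 60 min. Compound added for 30 min; depolarization read as fluorescence intensity at 590 nm.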
Potency is the fitted concentration of half-maximal effect; tags give direction and shape of the fitted curve.

| Compound | Potency | activation |
| --- | --- | --- |
| Cc1cc(OCC(=O)Nc2ccc3c(c2)OCCO3)ccc1Cl | active: 0.251 µM | – |
| COc1cc(C2Nc3cccc4cccc(c34)N2)ccc1OC(C)=O | active: 1.26 µM | – |
| COc1ccc(-c2nc3c(c4c2CC(C)OC4)CN(CCC(C)C)CC3)cc1 (centres undefined) | – | inactive: 0.895% [at 11.4 µM] |
| COc1cc(=O)n(C)c2c(OC[C@@H](O)C(C)(C)O)cccc12 | inconclusive [activator, single point] | – |
| O=C(c1ccco1)N1CCN(C(c2ccccc2Cl)c2nnnn2Cc2ccco2)CC1 (centres undefined) | inconclusive [activator, partial curve, poor fit] | – |
| Cc1ccc(C(=O)c2coc3ccc(O)c(CN4CCN(C)CC4)c23)cc1 | active: 12.6 µM | – |
| COc1ccc(C(=O)CSc2ncn[nH]2)cc1OC | inconclusive [activator, partial curve, poor fit] | – |
| CCOC(=O)C1(N(CC)CC)Sc2cc(C)ccc2NC1=O (centres undefined) | inconclusive [activator, single point] | – |
| Cc1ccc(CSC2=Nc3ccccc3C3=NC(CCC(=O)NCc4ccco4)C(=O)N23)cc1 (centres undefined) | inconclusive [activator, single point] | – |
| Cc1cccc(CSC2=NCCN2C(=O)c2ccc(Br)o2)c1 | active: 31.6 µM | – |
| O=C(CSc1nnc(-c2cnccn2)n1Cc1ccco1)Nc1ccc(Br)cc1 | inconclusive [activator, single point] | – |
| CCCCCOC(=O)c1[nH]c2c(c1C)C(=O)C(C(=O)OC)C(C)C2 (centres undefined) | inconclusive [activator, partial curve] | – |
| CCOC(=O)c1cnc(-n2cc(C)cn2)nc1NCc1ccc2c(c1)OCO2 | inconclusive [activator, partial curve] | – |
| COC(=O)CN(c1ccc(F)cc1)S(=O)(=O)c1ccccc1 | inconclusive [activator, partial curve] | – |
| CCOC(=O)Cc1csc(NC(=O)COc2ccc(N(C)S(=O)(=O)c3cccs3)cc2)n1 | active: 12.6 µM | – |
| COc1cc2c(cc1OC)C(=O)Cc1ccc3c(c1CN(C)CC2)OCO3 | inactive | – |
| N[C@@H](Cn1cc(I)c(=O)n(Cc2ccc(C(=O)O)cc2)c1=O)C(=O)O | inconclusive [activator, single point] | – |
| c1ccc2c(c1)Cc1cc3ccccc3nc1-2 | active: 20 µM | – |
| CC(C)Cn1cc(C(=O)NCc2cccs2)c2c3ccccc3n(C)c2c1=O | inconclusive [activator, full curve] | – |
| Cc1cc(N2CCC(C(=O)Nc3ccc(F)cc3)CC2)nc(-c2ccccc2)n1 | inactive | – |
| CN(C)c1ccc(-c2ccc3ncnc(N4CCNCC4)c3c2)cc1 | inactive | – |
| c1ccc2sc(SCc3ccc(-c4nnco4)cc3)nc2c1 | inconclusive [activator, single point] | – |

| Compound | Potency | activation |
| --- | --- | --- |
| Cc1occc1-c1nnc(SCC(=O)c2ccccc2)n1CC1CCCO1 (centres undefined) | inconclusive [activator, single point] | – |
| CC(C#N)Sc1nc2ccccc2c(=O)n1-c1ccccc1 (centres undefined) | inconclusive [activator, full curve, poor fit] | – |
| COC(=O)C1=C(C)NC(C)=C(C(=O)OCCN(C)Cc2ccccc2)[C@H]1c1cccc([N+](=O)[O-])c1 | inactive | – |
| CC1CCN(S(=O)(=O)c2cc(Cl)ccc2Br)CC1 | inconclusive [activator, partial curve] | – |
| CC1=C(C(=O)OCC2CCCO2)C(c2ccc(C)o2)C2=C(CC(c3ccc(F)cc3)CC2=O)N1 (centres undefined) | inconclusive [activator, partial curve] | – |
| Nc1nc(CN2CCN(c3ccccc3)CC2)nc(N2CCCc3ccccc32)n1 | inconclusive [activator, partial curve] | – |
| CO[C@H]1COC(=O)C/C=C\[C@@H](C)[C@H](OC)COC(=O)CCC[C@@H]1C | – | inactive: -0.7% [at 11.4 µM] |
| CCOc1cc2[nH]c(=O)n(CCCCC(=O)NC3CCCCC3)c(=O)c2cc1OCC | inconclusive [activator, single point] | – |
| O=C(NC1=NCCS1)Nc1ccccc1 | inactive | – |
| O=C(Oc1cccc(NC(=O)c2ccco2)c1)c1cccc(S(=O)(=O)N2CCCC2)c1 | inconclusive [activator, partial curve] | – |
| O=C(O)CSCc1cccc2ccccc12 | – | inactive: 12.5% [at 11.4 µM] |
| COc1cccc(OCC(O)CO)c1 (centres undefined) | inconclusive [activator, single point] | – |
| CCCCNc1nc(C)nc2c1nc(-c1ccccc1)n2CCN1CCCC1 | inconclusive [activator, partial curve] | – |
| COc1cc(C2c3c(-c4ccccc4)n[nH]c3C(=O)N2c2ccccc2)ccc1O (centres undefined) | inconclusive [activator, partial curve] | – |
| O=C(c1cc(C(F)(F)F)cc(C(F)(F)F)c1)N1CCC[C@@]2(CCN(c3ccncc3)C2)C1 | inconclusive [activator, partial curve] | – |
| COc1cccc(Nc2ncc3nc(-c4ccc(Cl)cc4)c(=O)n(CCC#N)c3n2)c1 | inconclusive [activator, single point] | – |
| N#Cc1nc(Cc2ccccc2)oc1NCc1ccccc1Cl | inconclusive [activator, single point] | – |
| COc1ccc(CNc2ncncc2-c2ccccc2C(F)(F)F)c(OC)c1 | inconclusive [activator, single point] | – |
| CCCn1cnc2c(c1=O)c1nc3ccccc3nc1n2CCc1ccccc1 | inconclusive [activator, partial curve] | – |
| CCOC(=O)C1=C(C)NC(C)=C(C(=O)OCC)C1c1cc2ccc(C)cc2[nH]c1=O | inconclusive [activator, partial curve] | – |
| N#Cc1cccc(-c2ccc3ncnc(NCCN4CCOCC4)c3c2)c1 | inactive | – |
| Cn1ccnc1C(=O)c1cc(=O)c2ccccc2o1 | inconclusive [activator, single point] | – |
